According to publication PMC4336329 (PLoS ONE, 2015):
Out of some 310,000 compounds screened, about 2,200 (0.71%) showed an effect of 50% or more. The effect is printed as a negative number. This is one part of the list.

Target: human ether-à-go-go-related gene (hERG) potassium channel (human, UniProt Q12809)
Experiment: primary screen, population patch clamp on CHO cells stably expressing hERG

Sequence of human ether-à-go-go-related gene (hERG) potassium channel (Q12809 whole entry, looked up): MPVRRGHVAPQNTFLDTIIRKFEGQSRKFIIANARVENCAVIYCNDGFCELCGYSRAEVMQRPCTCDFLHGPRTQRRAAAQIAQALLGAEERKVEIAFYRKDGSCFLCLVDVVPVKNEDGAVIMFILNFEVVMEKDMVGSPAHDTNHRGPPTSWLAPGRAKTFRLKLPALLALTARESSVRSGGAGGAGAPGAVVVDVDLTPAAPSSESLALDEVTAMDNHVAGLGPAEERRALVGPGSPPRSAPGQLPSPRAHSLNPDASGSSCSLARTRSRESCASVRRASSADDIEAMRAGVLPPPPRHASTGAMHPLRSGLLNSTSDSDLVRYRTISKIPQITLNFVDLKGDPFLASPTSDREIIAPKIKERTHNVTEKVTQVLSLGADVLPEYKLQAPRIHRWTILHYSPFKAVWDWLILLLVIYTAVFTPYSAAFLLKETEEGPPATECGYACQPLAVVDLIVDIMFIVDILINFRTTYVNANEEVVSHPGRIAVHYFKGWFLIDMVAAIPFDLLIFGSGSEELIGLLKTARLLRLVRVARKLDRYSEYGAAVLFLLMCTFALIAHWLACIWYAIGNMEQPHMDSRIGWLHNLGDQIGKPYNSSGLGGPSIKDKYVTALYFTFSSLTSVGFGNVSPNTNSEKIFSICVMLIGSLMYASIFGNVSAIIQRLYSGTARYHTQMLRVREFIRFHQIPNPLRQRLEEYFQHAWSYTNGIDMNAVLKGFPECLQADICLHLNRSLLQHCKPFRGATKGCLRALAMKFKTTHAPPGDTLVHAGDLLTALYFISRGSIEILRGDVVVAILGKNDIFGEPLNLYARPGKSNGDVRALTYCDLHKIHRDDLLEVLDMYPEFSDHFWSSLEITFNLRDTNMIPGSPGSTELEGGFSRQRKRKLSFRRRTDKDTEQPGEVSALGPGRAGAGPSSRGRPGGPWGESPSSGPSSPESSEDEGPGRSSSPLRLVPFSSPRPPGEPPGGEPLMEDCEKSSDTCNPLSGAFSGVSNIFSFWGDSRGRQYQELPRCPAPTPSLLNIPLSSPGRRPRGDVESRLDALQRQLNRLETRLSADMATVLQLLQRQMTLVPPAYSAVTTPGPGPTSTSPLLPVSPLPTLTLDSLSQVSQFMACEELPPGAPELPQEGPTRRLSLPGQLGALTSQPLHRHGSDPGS

SMILES	hERG current change (%, negative = inhibition) at 1uM
Cc1cc(C)cc(N=Cc2[nH]c3ccc(Br)c(Cl)c3c2O)c1	14.7%
CNC(=O)CC1C(=O)N(Cc2ccccc2)C(=S)N1NC(=O)c1cccc(F)c1 (centres unmarked)	8.71%
Cc1ccc(NC(=O)CN2C(=O)c3ccccc3C2=O)nc1	2.52%
Cc1c(NC(=O)CN2C(=O)NC(C)(c3ccccc3)C2=O)c(=O)n(-c2ccccc2)n1C (centres unmarked)	5.86%
CCCS(=O)(=O)N1CCc2cc(OC)c(OC)cc2C1	12.6%
COc1cc(NC(=O)c2ccccc2)c(OC)cc1NC(=O)CN1CCCCC1.Cl	6.17%
CCCc1nc2scc(-c3ccccc3)c2c(=O)n1N	2.47%
Cc1cccc(NC(=S)NCc2cccn2C)c1	-5.34%
Cc1ccc([N+](=O)[O-])cc1NC(=O)CSc1nncn1-c1ccccn1	4.27%
CC(=O)n1cc(/C=N/NC(N)=S)c2ccccc21	-1.58%
CCOc1ccccc1OCC(=O)NCc1ccco1	8.23%
Cc1noc(C)c1COC(=O)C1CCN(S(=O)(=O)c2c(Cl)cccc2Cl)CC1	11.7%
CN(CC(=O)NCc1ccccn1)S(=O)(=O)c1ccc(Cl)cc1	-0.147%
COc1ccc(/C=C/C(=O)NNc2cc(=O)n(C)c(=O)n2C)cc1OC	7.2%
O=C(CN1CCC(c2nc3ccccc3[nH]2)CC1)NCc1ccc2c(c1)OCO2	-41.1%
O=S(=O)(/N=C(\[O-])C[n+]1ccccc1)c1ccc(Cl)cc1	5.02%
COCCNC(=O)C12CC3CC(CC(Cl)(C3)C1)C2	15%
NS(=O)(=O)c1ccc(N=Nc2c[nH]c(=O)c(O)c2)cc1	8.36%
CCOc1ccc(N(CC(=O)NC2CCC(C)CC2)S(=O)(=O)c2c(C)noc2C)cc1 (centres unmarked)	12.8%
Cc1noc(NC(=O)c2ccc(Cl)cc2)c1Cl	12.3%
C=CCN1C(=O)C(O)(CC(=O)c2ccc(N)cc2)c2ccccc21 (centres unmarked)	4.38%
Clc1cccc(C[n+]2cc(-c3ccccc3)n3c2CCC3)c1.[Br-]	-6.51%
O=C(CC1S/C(=N/N=C/c2c[nH]c3ccc(OCc4ccccc4)cc23)NC1=O)Nc1ccccc1 (centres unmarked)	19.5%

SMILES	hERG current change (%, negative = inhibition) at 1uM
O=C(O)c1ccc(NC(=O)c2cc3ccccc3o2)cc1	13.7%
O=S(=O)(c1ccc(-c2n[nH]c(=S)o2)cc1)N1CCCC1	32.4%
COc1cc(NC(=O)c2ccccc2Cl)ccc1NC(=O)c1ccco1	-0.127%
CNC(=O)C(=O)NCC1OCCCN1S(=O)(=O)c1ccc2c(c1)OCCO2 (centres unmarked)	-0.612%
Cc1ccnc2nc(C(=O)OCC(=O)NCCc3ccccc3)nn12	10.8%
O=C(CN1CCCC1)Nc1nnc(-c2cccs2)s1	2.52%
Cc1ccc(C(=O)c2c3ccc(N)cc3nn2CCC(N)=O)cc1	15.9%
COc1ccc(C(CC(=O)N2CCOCC2)c2c(OC)cc(OC)c3ccc(=O)oc23)cc1 (centres unmarked)	4.89%
CC(=O)N1CCN(S(=O)(=O)c2cccc(C(=O)Nc3cc(C(F)(F)F)ccc3N3CCOCC3)c2)CC1	-0.673%
CN=C(C)C1=C(O)C(C(=O)OC)C(C)(C)CC1=O (centres unmarked)	0.737%
Cc1ccc(Cn2c(C3CCCN3c3nc(-c4ccc(F)cc4)cs3)nc3cc(C(=O)NCCCO)ccc32)cc1 (centres unmarked)	16.4%
Cc1cccc(/N=C/c2nc(-c3ccccc3Br)oc2O)n1	15.8%
O=C(Nc1nc(-c2ccc(Oc3ccccc3)cc2)cs1)C1=COCCO1	0.903%
CCN(CC)c1cc(Cl)nc(N)n1	13%
COC(=O)CSc1ncc(C#N)c(N)n1	0.696%
CCOC(=O)N1CCN(C(=O)CS(=O)(=O)c2cn(Cc3cccc(F)c3)c3ccccc23)CC1	12.1%
CCC1(CC)Nc2ccccc2C(=O)N1c1ccc(NC(C)=O)cc1	5.78%
CCN(CC)S(=O)(=O)c1ccc(NC(=O)COc2c(OC)cccc2OC)cc1	12.3%
O=C(NCc1ccccn1)C(=O)NCC1OCCN1S(=O)(=O)c1ccc([N+](=O)[O-])cc1 (centres unmarked)	2.09%
Cc1nc2c(=O)[nH]c(=S)n(C)c2nc1C	11.8%
CCN(CC)c1ccc(C(=O)N/N=C(\C)c2ccc(OC)c(OC)c2)cc1	1.83%
C/C(CC(=O)Nc1ccc(N(C)C)cc1)=N\NC(=O)c1ccc(F)cc1	12.9%
CCN(CC)CCNc1c2c(c(C#N)c3nc4ccccc4n13)CCCC2	-3.74%

SMILES	hERG current change (%, negative = inhibition) at 1uM
COc1ccc(-c2[nH]ncc2CN(C)Cc2cc(C)[nH]n2)c(F)c1	14.8%
COc1ccc(/C=C/C(=O)Oc2cccc(/C=N/NC(=O)c3cccc(F)c3)c2)cc1	-18.8%
CCOC(=O)C1(C)/C(=N/Nc2ccccc2Cl)C(=O)C(=O)N1c1ccccc1 (centres unmarked)	17.1%
COc1ccccc1C(=O)N1c2ccccc2Sc2ccccc21	3.13%
COc1ccc(Br)cc1CN1CCN(C(=O)c2cccc(F)c2)CC1.O=C(O)C(=O)O	-1.74%
CC(=O)Nc1nonc1NC(C)=O	6.04%
COc1ccc(-n2c(O)c(C=Nc3ccccc3)c3ccccc3c2=O)cc1OC	-0.129%
CCN(CC)S(=O)(=O)c1ccc(/C=C/C(=O)OCC(=O)Nc2ccc(C(N)=O)cc2)cc1	14.9%
COc1ccc(Cc2nn3c(Cn4nnc5ccccc54)nnc3s2)cc1	8.06%
Cc1cc(C(=O)COC(=O)CN=C2NS(=O)(=O)c3ccccc32)c(C)n1CCc1ccc(Cl)cc1	15.8%
O=C(Nc1c2c(nn1-c1ccccc1)CS(=O)(=O)C2)c1ccccc1Br	1.13%
Cc1cccc(C(=O)Nc2cccc(C(=O)N/N=C/c3ccncc3)c2)c1	-2.35%
CC(=O)NC(NC(C)=O)c1ccc(Br)cc1	-1.9%
CCCCNC(=O)CN(c1cccc(F)c1)S(C)(=O)=O	5.09%
c1ccc(-n2cnc3ccccc32)cc1	5.55%
Cc1ccnc(NC(=O)COC(=O)C23CC4CC(CC(C4)C2)C3)n1	12.4%
O=C(c1ccc(S(=O)(=O)N2CCCC2)cc1)N(c1ccc(F)cc1)C1C=CS(=O)(=O)C1 (centres unmarked)	-19%
CSc1ncc(C(=O)Nc2cccnc2)c(C(F)(F)F)n1	12.2%
Clc1ccccc1C1CC(c2ccccc2)=Nc2ccccc2N1 (centres unmarked)	8.9%
CCC(=O)/C=C1\Sc2ccc(OC)cc2N1CCO	1.53%
O=c1[nH]c([S-])nc2sc3c(c12)CCCC3.[K+]	5.18%
O=C(NCc1ccccc1)c1nc[nH]c1C(=O)N1CCc2ccccc2C1	12.7%
CC1CCCCN1S(=O)(=O)c1ccc(NC(=O)c2cccs2)cc1 (centres unmarked)	5.12%

SMILES	hERG current change (%, negative = inhibition) at 1uM
O=c1c(-c2nnc(SCc3ccc(Cl)cc3)o2)cccn1Cc1ccccc1	-2.76%
CCCn1nnc(NC(=O)c2cccc(OCc3ccccc3)c2)n1	10.8%
CCCCNC(=O)C(=O)N/N=C/c1ccc(OCC(=O)Nc2cccc(OC)c2)c(OC)c1	-0.917%
O=C(Nc1c(C(=O)N2CCC(N3CCCCC3)CC2)oc2ccccc12)c1c(F)cccc1F	-5.22%
CNC1=C([N+](=O)[O-])CC([N+](=O)[O-])=C(N2CCNCC2)N1C	1.05%
O=C(Nc1cccn(Cc2c(Cl)cccc2Cl)c1=O)C1CC1	15.9%
COC(=O)C1C(=O)C2=C(CC1C)NC(C)=C(C(=O)OC(C)C)C2c1ccc(C)o1 (centres unmarked)	1.34%
O=C(CNC(=O)Cc1ccccc1)NCC(=O)OCC(=O)c1cccc2ccccc12	-19.2%
CCOc1cccc(C(=O)NCc2ccccc2)c1	11%
O=S(=O)(c1ccc2c(c1)OCCO2)N1CCC(c2nc3ccccc3s2)CC1	9.7%
Cc1ccc(C(=O)N2CCCC(N(C)Cc3ccccc3)C2)s1 (centres unmarked)	-9.48%
O=C(NC1(C(F)(F)F)NC(=O)N(Cc2ccccc2)C1=O)c1cccnc1 (centres unmarked)	13%
COc1ccc(S(=O)(=O)NCC(=O)NCc2cc(=O)n(C)c(=O)n2C)cc1C	15.8%
Cc1nn(Cc2ccc(C(=O)N3CCOCC3)o2)c(C)c1Br	9.67%
CC(OC(=O)c1cc2sccc2n1C)C(=O)NCC1CCCO1 (centres unmarked)	8.12%
CSc1nnc(C)c(=O)n1COC(=O)/C=C/c1ccc2c(c1)OCO2	5.62%
Clc1ccc2c(NCc3ccccc3)ccnc2c1	-1.17%
COc1ccc(C2SCCN2C(=S)Nc2ccc(Cl)cc2)cc1 (centres unmarked)	18.3%
CC(=O)O.Fc1ccc(NC(=S)Nc2cccnc2)cc1	7.51%
Cc1ccc(C2=N/C(=C\N(C)C)C(=O)O2)cc1	-0.584%
